# Columns and labels:
# IDH1mutant (mt) = target: T1, IDH1mutant (mt) (Homo sapiens, UniProt O75874, R132H); assay: Inhibition of palmitoylation of IDH1mt by compound treatment; format: cell-based; conditions: 1 μM (FIG. 7C)
# T1 construct: expressed in transfected cells; host or cells: HEK293A
# Method: (§1) For in-cell labeling, HEK293A cells with or without overexpression of proteins of interest were starved in DMEM medium with 10% dialyzed fetal bovine serum (DFBS) for 1 h and labeled using the covalent probes (10 μM) overnight. The cells were then washed and harvested using cold DPBS (14190250, Life Technologies). The cell pellets were isolated by centrifugation (500×g, 10 min) and lysed by TEA lysis buffer (50 mM TEA-HCl, pH 7.4, 150 mM NaCl, 1% Triton X-100, 0.2% SDS, 1×Protease inhibitor-EDTA free cocktail (05892791001, Roche), phosphatase inhibitor cocktail (P0044, Sigma-Aldrich)) on ice for 30 mins. The protein concentration was determined using Bio-Rad assay and adjusted to 1 mg/mL. For lysate labeling, HEK293A cells were grown in DMEM with 10% FBS. When confluence reached ˜90%, the cells were washed and harvested by cold DPBS. […] The protein concentration is determined using Bio-Rad assay and adjusted to 1 mg/mL. […]
# (§2) 100 μL of labeled proteome was treated with 10 μL of freshly prepared “click” mixture containing 1 mM TBTA, 10 mM TCEP, 10 mM CuSO4, 1 mM Biotin-Azide and incubated for 1 h at room temperature. […] The bound proteins were eluted with a buffer containing 10 mM EDTA (pH 8.2) and 95% formamide and analyzed with SDS-PAGE. […]
# IDH1mtC269S = target: T2, IDH1mtC269S (Homo sapiens, UniProt O75874, C269S/R132H); assay: Inhibition of palmitoylation of IDH1mtC269S by compound treatment; format: cell-based; conditions: 1 μM (FIG. 7C)
# T2 construct: HA; expressed in transfected cells; host or cells: HEK293A
# Method: as §1, §2
# IDH1 R132H [1] = target: T3, IDH1 R132H (Homo sapiens, UniProt O75874, R132H); assay: Labeling of IDH1 R132H by Compound B4; format: binding; conditions: FIG. 7A, 7B
# T3 construct: expressed in transfected cells; host or cells: HEK293A
# Method: as §1, §2
# IDH1 R132H C269S = target: T4, IDH1 R132H C269S (Homo sapiens, UniProt O75874, C269S/R132H); assay: Labeling of IDH1 R132H C269S mutant by Compound B4; format: binding; conditions: C269S mutant (FIG. 7B)
# T4 construct: HA; expressed in transfected cells; host or cells: HEK293A
# Method: as §1, §2
# IDH1 R132H [2] = target: T3, IDH1 R132H; assay: Competition of in vitro Compound B4 labeling of recombinant IDH1 R132H by pretreatment with compound; format: binding; conditions: pretreatment 30 mins, in vitro (FIG. 7A)
# Method: For in vitro treatment, the recombinant proteins were pretreated with compounds at indicated concentrations for 30 mins, followed by the labeling experiments. For in-cell treatment, HEK293A cells were pretreated with compounds under indicated concentrations for 8 h and then labeled with covalent probes for another 16 h. The structure of Compound C20 is shown below.
# IDH1 mt (IDH1R132H) = target: T5, IDH1 mt (IDH1R132H) (Homo sapiens, UniProt O75874, R132H); assay: Auto-palmitoylation of recombinant IDH1 mt with Alkyne Palmitoyl-CoA (western blot); format: biochemical; conditions: indicated concentrations, 30 mins (FIG. 6D)
# T5 construct: purchased Cayman 14132
structure (smiles),measurement,setting,value
C=CC(=O)N1CCN([C@@H](CC2CC2)c2ccc([C@H](C)Nc3ncc4c(n3)N(CC)C(=O)OC4)cc2)CC1 [LY3410738],effect on palmitoylation of IDH1mt,IDH1mutant (mt),inhibited palmitoylation
same,effect on palmitoylation of IDH1mtC269S,IDH1mtC269S,but not
"C#CCCCCCCCCCCCCNC(=O)CBr [Compound B4, 2-bromo-N-(tetradec-13-yn-1-yl)acetamide]",site of labeling in IDH1mt,IDH1 R132H [1],selectively labeled Cysteine 269 of IDH1mt
same,effect of mutation of cysteine 269 to serine on labeling of IDH1 R132H by the probe,IDH1 R132H C269S,dramatically abolished labeling
O=C(CCl)N1CCC(C(O)(c2ccccc2)c2ccccc2)CC1 [Compound C20],effect on in vitro labeling of recombinant IDH1 R132H with Compound B4,IDH1 R132H [2],suppressed
C#CCCCCCCCCCCCCCC(=O)SCCNC(=O)CCNC(=O)[C@H](O)C(C)(C)COP(=O)(O)OP(=O)(O)OC[C@H]1O[C@@H](n2cnc3c(N)ncnc32)[C@H](O)[C@@H]1OP(=O)(O)O [Alkyne Palmitoyl-CoA],auto-palmitoylation (labeling) of IDH1 somatic mutation version,IDH1 mt (IDH1R132H),strong auto-palmitoylation activities

# Source: patent publication US20260103438A1, “PROBES AND METHODS TO IDENTIFY LIGANDABLE FATTY ACYLATION SITES FOR THERAPEUTIC TARGET IDENTIFICATION” (The General Hospital Corporation, priority 2022, published 2026)
